# Legend:
# STHdhQ111 striatal cells = assay: XTT assay of metabolic activity in STHdhQ111 striatal cells; format: cell-based, mouse; conditions: mutant STHdh striatal cells
# [1] = tested on: Drosophila melanogaster expressing Httex1p Q93; assay: Neurodegeneration rescue in Httex1p Q93 flies, pseudopupil technique; format: in vivo; conditions: 7 days post eclosion
# HDAC8 = biological target: T1, HDAC8 (Homo sapiens, UniProt Q9BY41); assay: HDAC8 inhibition, recombinant enzyme cell-free assay; conditions: read-out: IC50 for Class I HDAC enzymes: HDAC8; Table 1
# T1 sequence (Q9BY41 1-377): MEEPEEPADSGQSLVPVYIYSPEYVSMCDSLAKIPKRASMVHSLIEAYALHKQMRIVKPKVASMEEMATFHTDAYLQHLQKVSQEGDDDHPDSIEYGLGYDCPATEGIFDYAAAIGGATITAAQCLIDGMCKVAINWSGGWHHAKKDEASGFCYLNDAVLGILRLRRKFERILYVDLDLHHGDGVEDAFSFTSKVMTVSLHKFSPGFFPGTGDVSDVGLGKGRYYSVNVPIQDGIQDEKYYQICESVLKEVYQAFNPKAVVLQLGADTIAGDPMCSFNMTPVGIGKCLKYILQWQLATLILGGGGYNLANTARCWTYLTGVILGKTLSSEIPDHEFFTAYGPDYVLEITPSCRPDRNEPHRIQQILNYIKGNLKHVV
# HDAC4 = HDAC4 (Homo sapiens, UniProt P56524); assay: HDAC4 inhibition; conditions: read-out: IC50 for Class II HDAC enzymes: HDAC4; Table 1
# Sequence of HDAC4 (P56524 whole entry, species assumed): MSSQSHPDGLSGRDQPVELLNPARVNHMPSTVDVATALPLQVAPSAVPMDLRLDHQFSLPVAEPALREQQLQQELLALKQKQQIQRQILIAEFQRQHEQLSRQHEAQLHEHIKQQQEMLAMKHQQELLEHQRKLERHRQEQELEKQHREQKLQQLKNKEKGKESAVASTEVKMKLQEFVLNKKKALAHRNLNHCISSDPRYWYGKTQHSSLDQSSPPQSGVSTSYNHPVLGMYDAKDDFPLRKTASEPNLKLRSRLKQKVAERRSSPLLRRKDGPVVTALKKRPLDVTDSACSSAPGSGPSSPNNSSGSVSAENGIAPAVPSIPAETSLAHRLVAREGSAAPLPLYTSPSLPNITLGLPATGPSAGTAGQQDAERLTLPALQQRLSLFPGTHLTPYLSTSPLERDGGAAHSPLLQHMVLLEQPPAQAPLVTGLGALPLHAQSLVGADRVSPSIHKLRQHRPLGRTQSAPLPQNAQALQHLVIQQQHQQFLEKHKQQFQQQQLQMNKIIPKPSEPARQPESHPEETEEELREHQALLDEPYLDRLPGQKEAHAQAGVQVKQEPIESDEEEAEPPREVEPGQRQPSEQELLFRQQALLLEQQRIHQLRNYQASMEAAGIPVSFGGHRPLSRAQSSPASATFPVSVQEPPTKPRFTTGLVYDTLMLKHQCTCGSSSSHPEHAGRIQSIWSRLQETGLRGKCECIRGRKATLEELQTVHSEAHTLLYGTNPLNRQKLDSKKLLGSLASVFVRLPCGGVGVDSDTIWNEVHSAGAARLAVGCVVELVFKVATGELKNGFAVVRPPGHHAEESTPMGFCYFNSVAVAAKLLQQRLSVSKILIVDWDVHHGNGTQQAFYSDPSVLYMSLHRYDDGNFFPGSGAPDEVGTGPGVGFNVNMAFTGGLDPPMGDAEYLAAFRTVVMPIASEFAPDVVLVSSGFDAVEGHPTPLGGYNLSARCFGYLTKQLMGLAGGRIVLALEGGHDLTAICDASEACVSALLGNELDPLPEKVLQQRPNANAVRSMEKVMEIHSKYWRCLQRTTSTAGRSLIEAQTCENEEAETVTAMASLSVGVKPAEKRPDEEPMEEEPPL
# HDAC5 = HDAC5 (Homo sapiens, UniProt Q9UQL6); assay: HDAC5 inhibition; conditions: read-out: IC50 for Class II HDAC enzymes: HDAC5; Table 1
# Sequence of HDAC5 (Q9UQL6 whole entry, species assumed): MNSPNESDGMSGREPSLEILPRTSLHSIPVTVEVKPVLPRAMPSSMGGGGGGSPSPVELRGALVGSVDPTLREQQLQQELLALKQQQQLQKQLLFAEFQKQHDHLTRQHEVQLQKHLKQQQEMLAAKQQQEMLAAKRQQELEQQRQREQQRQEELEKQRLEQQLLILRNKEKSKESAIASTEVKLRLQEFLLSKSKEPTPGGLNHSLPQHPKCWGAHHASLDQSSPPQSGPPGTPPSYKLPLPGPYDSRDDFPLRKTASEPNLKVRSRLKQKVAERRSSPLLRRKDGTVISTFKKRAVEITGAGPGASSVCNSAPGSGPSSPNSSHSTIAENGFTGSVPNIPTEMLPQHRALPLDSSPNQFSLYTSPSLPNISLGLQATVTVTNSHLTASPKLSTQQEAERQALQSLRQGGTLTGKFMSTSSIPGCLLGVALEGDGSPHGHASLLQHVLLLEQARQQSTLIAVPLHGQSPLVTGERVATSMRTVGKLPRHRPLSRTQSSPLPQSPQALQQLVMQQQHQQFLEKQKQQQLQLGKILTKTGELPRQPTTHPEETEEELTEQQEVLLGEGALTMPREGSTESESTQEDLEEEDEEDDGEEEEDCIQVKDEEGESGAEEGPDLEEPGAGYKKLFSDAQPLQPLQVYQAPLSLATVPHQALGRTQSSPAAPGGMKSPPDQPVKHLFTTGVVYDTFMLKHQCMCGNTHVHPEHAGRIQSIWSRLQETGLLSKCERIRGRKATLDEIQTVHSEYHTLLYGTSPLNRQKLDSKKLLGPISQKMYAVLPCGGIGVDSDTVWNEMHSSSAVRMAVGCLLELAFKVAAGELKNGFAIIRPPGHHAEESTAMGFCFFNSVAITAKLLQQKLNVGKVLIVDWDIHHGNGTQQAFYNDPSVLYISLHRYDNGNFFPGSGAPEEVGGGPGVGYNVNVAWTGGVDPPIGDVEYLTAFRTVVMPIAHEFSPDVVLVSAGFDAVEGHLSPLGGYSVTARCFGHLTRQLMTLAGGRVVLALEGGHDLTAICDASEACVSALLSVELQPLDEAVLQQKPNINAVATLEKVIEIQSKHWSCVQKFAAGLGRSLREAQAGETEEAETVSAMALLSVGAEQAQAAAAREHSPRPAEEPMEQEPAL
# HDAC7 = biological target: T2, HDAC7 (Homo sapiens, UniProt Q8WUI4); assay: HDAC7 inhibition; conditions: read-out: IC50 for Class II HDAC enzymes: HDAC7; Table 1
# T2 sequence (Q8WUI4 1-952): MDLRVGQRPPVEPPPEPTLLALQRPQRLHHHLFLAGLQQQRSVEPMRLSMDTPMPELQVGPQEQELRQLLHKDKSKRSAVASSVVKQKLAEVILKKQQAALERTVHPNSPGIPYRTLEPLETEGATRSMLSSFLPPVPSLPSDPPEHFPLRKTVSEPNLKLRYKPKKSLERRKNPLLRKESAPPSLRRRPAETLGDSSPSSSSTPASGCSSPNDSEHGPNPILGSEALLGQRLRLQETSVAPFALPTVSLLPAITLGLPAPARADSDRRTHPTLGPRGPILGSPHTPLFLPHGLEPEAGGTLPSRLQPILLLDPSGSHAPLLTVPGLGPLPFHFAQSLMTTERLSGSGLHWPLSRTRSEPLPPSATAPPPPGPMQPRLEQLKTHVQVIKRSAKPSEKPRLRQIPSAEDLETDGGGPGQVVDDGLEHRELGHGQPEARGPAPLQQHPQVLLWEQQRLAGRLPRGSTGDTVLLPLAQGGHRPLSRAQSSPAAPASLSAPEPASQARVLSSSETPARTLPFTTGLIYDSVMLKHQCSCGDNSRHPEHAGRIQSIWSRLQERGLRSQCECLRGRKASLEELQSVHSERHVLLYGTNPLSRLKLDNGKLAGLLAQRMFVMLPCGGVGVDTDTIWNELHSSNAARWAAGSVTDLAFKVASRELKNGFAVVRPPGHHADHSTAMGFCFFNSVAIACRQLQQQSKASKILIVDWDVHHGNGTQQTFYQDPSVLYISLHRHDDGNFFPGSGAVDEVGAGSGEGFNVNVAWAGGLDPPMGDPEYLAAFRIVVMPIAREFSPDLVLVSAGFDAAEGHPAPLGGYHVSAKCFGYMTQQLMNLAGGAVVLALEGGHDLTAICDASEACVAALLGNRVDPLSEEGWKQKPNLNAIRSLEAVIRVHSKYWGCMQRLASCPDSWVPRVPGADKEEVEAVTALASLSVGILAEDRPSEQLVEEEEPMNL
# [2] = tested on: HD-related gene expression in striatum, R6/2 transgenic mice; assay: Real-time PCR of HD-related genes in striatum of R6/2 transgenic mice; conditions: 150 mg/kg s.c. three days
compound,measurement,setting,value
Nc1ccc(-c2cccs2)cc1NC(=O)CCCCCCNC(=O)c1cccnc1 [compound 233],"MEC, minimum effective concentration for metabolic improvement","STHdhQ111 striatal cells; only effective at 24 hrs, not 48 hrs",0.5 µM
same,concentration of the most potent effect at reducing eye neurodegeneration,[1],10 nM
"Nc1ccccc1NC(=O)c1ccc(CNC(=O)OCc2cccnc2)cc1 [MS275, reference compound]","MEC, minimum effective concentration for metabolic improvement",STHdhQ111 striatal cells; XTT at 24 and 48 hrs,1 µM
Cc1ccc(C(=O)NCCCCCC(=O)Nc2ccccc2N)cc1 [compound 109],"rescue of eye neurodegeneration (rhabdomeres per ommatidium), in words",[1],not effective
same,IC50,HDAC8,10.7 µM
same,IC50,HDAC4,> 180 µM
same,IC50,HDAC5,> 180 µM
same,IC50,HDAC7,> 180 µM
same,"reversal of expression of genes relevant to HD, in words",[2],less effective
Cc1ccc(NC(=O)CCCCCC(=O)Nc2ccccc2N)cc1 [4b],"MEC, minimum effective concentration for metabolic improvement",STHdhQ111 striatal cells; XTT at 24 and 48 hrs,0.5 µM
same,"rescue of eye neurodegeneration (rhabdomeres per ommatidium), in words",[1],statistically significant effects
Cc1ccc(C(=O)NCCCCCC(=O)Nc2ccc(F)cc2N)cc1 [compound 136],"MEC, minimum effective concentration for metabolic improvement",STHdhQ111 striatal cells; XTT at 24 and 48 hrs,1 µM
same,"rescue of eye neurodegeneration (rhabdomeres per ommatidium), in words",[1],statistically significant effects

# From PMC3528106 (Neurobiology of disease, 2012)
